# ChEMBL document CHEMBL1156829
# Whole data set: some 5,400 compounds, median “IFI” near 2, cut for the highest 2% near 22. This is one part of the list.
# Assay: NOVARTIS: Inhibition Frequency Index (IFI) - the number of HTS assays where a compound showed > 50% inhibition/induction, expressed as a percentage of the number of assays in which the compound was tested.
# Type: functional
row,Compound,IFI [%]
1,O=C(CCCOc1ccc(Cl)cc1Cl)NCCCn1ccnc1,1.56
2,CC1=CC(=C(C#N)c2nc3ccccc3s2)C=C(C)N1c1ccc2c(c1)OCO2,3.12
3,COc1ccc(/C=C2/SC(=N)N(c3ccccc3OC)C2=O)cc1,2.35
4,CCc1ccc(C(Nc2cc(C)ccn2)c2ccc3cccnc3c2O)cc1 (configuration not stated),14.3
5,CCN(CC(=O)N1CCc2cc(OC)c(OC)cc2C1C)C(=O)Nc1ccc(Br)cc1 (configuration not stated),2.83
6,CCOC(=O)C1=C(C)NC2=C(C(=O)C(C(=O)OCC)C(c3cccc(OC)c3)C2)C1c1cc(OC)c(OC)c(OC)c1 (configuration not stated),3.53
7,COc1ccc(NC(=O)Cn2ncc3ccccc32)cc1OC,2.13
8,Cc1ccc(-c2cn3ccccc3[n+]2-c2ccccc2)cc1,6.52
9,COc1ccc(CCN2C(=O)N(CCN(C)C)C(=O)C23CCN(Cc2ccc(O)cc2)CC3)cc1,2.41
10,N#CC(C#N)C(/C(Sc1ccc([N+](=O)[O-])cc1)=C(/O)c1ccccc1)c1cccs1 (configuration not stated),0
11,CCOc1ccc(-c2nc(NC(=O)Cc3cccc(OC)c3)sc2C)cc1,3.23
12,C=C1C=CN(Cc2ccccc2)c2ccc(OC)cc21,0
13,Clc1ccc(-c2csc3ncnc(NCc4ccncc4)c23)cc1,0
14,COC(=O)C1=C(C(=O)OC)SC(=C2C(=S)C(C)(C)Nc3cc(C)ccc32)S1,0
15,COc1ccc2cc(C(C)=NO)ccc2c1,1.61
16,COc1cc(NC(C)CCCN(Cc2ccc(F)cc2)C(=O)C(C)(C)CCl)c2ncccc2c1 (configuration not stated),1.05
17,CCC(c1nc2ccccc2c(=O)n1-c1ccc(F)cc1)N(CCc1ccccc1)C(=O)COc1ccccc1 (configuration not stated),1.07
18,CCCNC1=C(N(C(C)=O)c2cccc(F)c2)C(=O)c2ccccc2C1=O,21.4
19,Cc1cccc(N2C(=O)C3C(C2=O)C2(c4ccccc4)C(=O)C3(c3ccccc3)C(c3ccc4c(c3)OCO4)=C2c2ccc3c(c2)OCO3)c1 (configuration not stated),0
20,COc1cc(NC(C)CCCN(Cc2ccc(OC)c(OC)c2)C(=O)Nc2cccc(Cl)c2Cl)c2ncccc2c1 (configuration not stated),6.42
21,O=C(NCCCCCCNC(=O)Nc1ccc(C2=NCCCN2)cc1)Nc1ccc(C2=NCCCN2)cc1,5.41
22,CCOC(=O)c1c(C)n(-c2ccccc2)c2ccc(OC(=O)c3ccco3)cc12,0
23,CSc1nnc(-c2cccc([N+](=O)[O-])c2)n1Cc1ccccc1,0
24,Oc1c2c(nc3cc(-c4ccccc4)nn13)CCCC2,7.14
25,COc1ccc(-c2c[n+](CC(=O)c3ccc([N+](=O)[O-])cc3)c3n2CCC3)cc1,2.5

row,Compound,IFI [%]
1,CCSCCOC(=O)C1=C(C)NC2=C(C(=O)CCC2)C1c1ccc(OC)c(Br)c1 (configuration not stated),2.33
2,Cc1nc(NCCCN(C)C)c2sc3nc4c(cc3c2n1)COC(C)(C)C4,2.98
3,O=C(COC(c1cccs1)c1cccnc1Cl)N1CCN(CCO)CC1 (configuration not stated),3.92
4,O=C(NCCCCNc1ccnc2cc(Cl)ccc12)c1ccccc1Cl,2.78
5,O=C(CCl)Nc1ccc2c(c1)OCO2,0
6,CCCOC(=O)C1=C(C)NC2=C(C(=O)CC(c3ccc(OC)c(OC)c3)C2)C1c1cccc(C)c1 (configuration not stated),4.71
7,COc1cc(CN2CCC3(CC2)CC3C(=O)NCCc2ccccc2OC)ccc1O (configuration not stated),0
8,N=c1c2c(n(Cc3cccc(Cl)c3)c3c1CCC3)CCCC2,14.3
9,COc1cc(C(Nc2ccccn2)c2ccc3cccnc3c2O)cc(Br)c1OC (configuration not stated),13
10,O=C(Nc1ccc(Cl)c(Cl)c1)Nc1ccc(Cl)c(Cl)c1,6.06
11,COc1cccc(C(=O)N(C)CCCNc2ccnc3cc(Cl)ccc23)c1,1.85
12,O=C(Nc1ccc(Cl)cc1)c1c2c(nc3ccccc13)-c1ccccc1CC2,0
13,O=C1c2ccccc2C2=Nc3ccccc3SC(c3ccccc3F)C12 (configuration not stated),0
14,Cc1ccnc(NS(=O)(=O)c2ccc(NC(=O)C(C)C)cc2)n1,0
15,O=c1c(=O)n(Cc2cccc(C(F)(F)F)c2)ccn1CCc1ccccc1,2.22
16,COc1ccc(C(=O)Oc2ccccc2-c2nc3cc(C)ccn3c2NC(C)(C)CC(C)(C)C)c(OC)c1,1.06
17,CC1CCC(Nc2ccnc3cc(Cl)ccc23)CC1 (configuration not stated),6.17
18,Nc1nc(N)c2cc(S(=O)(=O)N3CCCC3)ccc2n1,11.7
19,O=C1C(=Cc2cc([N+](=O)[O-])cc(Br)c2O)C(=O)c2ccccc21,7.69
20,COc1cc2c(-c3cc(Br)ccc3O)nc3c(c(-c4ccccc4)nn3-c3ccccc3)c2cc1OC,3.03
21,N#Cc1c(-c2ccccc2)cc(N2CCN(C3CCCCC3)CC2)n2c1nc1ccccc12,0
22,CCCCNC(=O)C(c1cccc(OC)c1)N1C(=O)c2cc(Oc3ccccc3)ccc2NC(=O)C1CO (configuration not stated),3.03
23,FC(F)(F)c1ccc(-c2nc(C34CC5CC(CC(C5)C3)C4)cs2)cc1,4.25
24,Cc1ccc(O)c(NC(=O)c2cnn3c(C(F)(F)F)cc(-c4ccc(Br)cc4)nc23)c1,0
25,COc1ccccc1CCNCc1cc(-c2ccc(F)cc2)ccc1O,0.909

row,Compound,IFI [%]
1,CCCN(CC(=O)Nc1cc(C(C)(C)C)nn1-c1cccc(C)c1C)C(=O)C1CCCCC1,0.909
2,O=C(O)CC/C(=C1/C=C(c2ccc(Cl)cc2)NC1=O)c1ccc(Cl)cc1,7.69
3,CCCN(CCC)S(=O)(=O)c1cc(Br)cc2c1N(C(=O)CC)CC2,0
4,CC(C)c1ccc(NC(=O)c2ccc(NCCCN3CCN(c4cccc(Cl)c4)CC3)c([N+](=O)[O-])c2)cc1,0
5,COc1cc2nc(SCC(C)C)n(CCCn3ccnc3)c(=N)c2cc1OC,2.38
6,C/C(C=C1Sc2ccc3ccoc3c2N1CCO)=C\c1sc2ccc3occc3c2[n+]1CCO,14.3
7,O=[N+]([O-])c1cccc(Cl)c1N1CCN(S(=O)(=O)Cc2ccccc2)CC1,0
8,CN(CCCNc1ccnc2cc(Cl)ccc12)C(=O)c1cc(Cl)cc(Cl)c1,1.71
9,COc1cc(C(=O)NC2CC3CCC(C2)N3C2CC2)cc(OC)c1OC (configuration not stated),0
10,CCN(CC)c1ccc2c(C)cc(Nc3ccccc3)[o+]c2c1,7.69
11,COc1ccccc1N1C(=N)S/C(=C/c2ccc(N(C)C)cc2)C1=O,15.4
12,CCCCCC[P+](N(CCC)CCC)(N(CCC)CCC)N(CCC)CCC,29.1
13,COc1cc(CN(CC[C@H](c2ccccc2)c2c(O)ccc3ccccc23)Cc2ccccc2)cc(OC)c1,3.64
14,COc1ccc(-n2c(CNC(=O)c3cccc4ccccc34)n[nH]c2=S)cc1,0
15,COc1ccc(/C=C2\SC(=N)N(c3ccc4c(c3)OCO4)C2=O)cc1OC,2.44
16,NCCCC[C@H]1C(=O)Nc2ccc(O)cc2C(=O)N1C(C(=O)NCC(=O)O)c1cccnc1 (some centres not stated),1.18
17,O=C(NCCCCNc1ccnc2cc(Cl)ccc12)C(c1ccccc1)c1ccccc1,3.77
18,CCCN(Cc1cc(OC)c2c(c1)OCO2)CC1CC1,0
19,COc1cc(OC)cc(C(=O)N2CCN(c3ccccn3)CC2)c1,7.69
20,Cc1cc(Br)cc(Cl)c1OC(=O)c1ccno1,1.65
21,CC(=O)N(C1=C(N2CCOCC2)C(=O)c2ccccc2C1=O)c1ccc(Cl)c(Cl)c1,15.4
22,COc1ccc(N2CCN(c3ncnc4sc(C(=O)NCc5cccnc5)c(C)c34)CC2)cc1,1
23,COc1ccc(CN(C=O)/C=C2\Sc3ccccc3C2=O)cc1OC,0
24,C(=NNc1nc2ccccc2[nH]1)c1ccc2c(c1)OCO2,8.33
25,Cc1ccc(C(=O)Nc2ccc(-c3nc4cc5ccccc5cc4[nH]3)cc2)cc1[N+](=O)[O-],9.09

row,Compound,IFI [%]
1,CC(C)OC(=O)NC(Nc1ccccc1)C(Cl)(Cl)Cl (configuration not stated),0
2,CC1(C)CC(N=c2cc(-c3ccccc3)oc3ccc(Cl)cc23)CC(C)(C)N1,11.4
3,CC[C@]1(C2OC(C3O[C@](O)(CO)[C@@H](C)C[C@H]3C)C[C@H]2C)CCC([C@@]2(C)CC[C@@]3(C[C@@H](O)[C@H](C)C([C@H](C)[C@H](OC)C(C)C(=O)O)O3)O2)O1 (some centres not stated),8.2
4,CN(C)c1ccc(/C=C2\SC(=Nc3ccc(O)cc3)NC2=O)cc1,7.96
5,CCOc1ccc(-n2cc(-c3ccccc3)c3c(SCc4cc(C)ccc4C)ncnc32)cc1,0
6,O=C1c2cc([N+](=O)[O-])ccc2-n2c1nc1ccccc1c2=O,4.54
7,CCOc1ccc(-c2nonc2NC(=O)c2ccco2)cc1OCC,0
8,CCOC(=O)c1c(CNc2ccncc2)n(C)c2cc(Br)c(O)cc12,0
9,O=C(CCCn1c(SCc2ccccc2F)nc2ccccc2c1=O)N1CCCC1,0
10,N#Cc1c2c(c(N3CCN(c4ccccn4)CC3)n3c1nc1ccccc13)CCC2,2.33
11,COc1ccc(C2=C(c3ccc(OC)cc3)C3(c4ccccc4)C(=O)C2(c2ccccc2)C2C(=O)N(c4ccc(OC)cc4[N+](=O)[O-])C(=O)C23)cc1 (configuration not stated),0.73
12,C[n+]1c(-c2ccccc2)cc(-c2ccccc2)cc1-c1ccccc1,2.53
13,CC[n+]1c(/C=C2\Sc3ccc(C)cc3N2CCO)ccc2ccccc21,15.4
14,CCC(=O)N(C1=C(NC)C(=O)c2ccccc2C1=O)C(C)C,0
15,COc1ccccc1NC1=CC(=NS(=O)(=O)c2cccs2)c2ccccc2C1=O,7.69
16,COc1ccc(OC)c(-c2ccc(O)c(CN3CCCC(C)C3)c2)c1 (configuration not stated),1.72
17,Cc1ccc(C(=O)Nc2ccc(-c3nc4ccc(NC(=O)c5ccc(C)cc5)cc4[nH]3)cc2)cc1,17.4
18,OC1=C2C(=Nc3ccccc3SC2c2ccc(Br)cc2)c2ccccc21 (configuration not stated),1.07
19,CCOC(=O)C1=C(C)NC2=C(C(=O)C(C(=O)OC)C(C)C2)C1c1cc(Br)c(OCC)c(OC)c1 (configuration not stated),5.81
20,CCCCCCCSc1c(O)c2ccc(Cl)cc2[nH]c1=O,0
21,O=C(Cc1ccccc1)NCc1nnc(SCC(=O)N2N=C(c3cccs3)CC2c2ccc(F)cc2)n1Cc1ccccc1 (configuration not stated),2.41
22,CCN1CCN(C/C=C/c2ccccc2[N+](=O)[O-])CC1,0
